The source of these data is patent US20230159603A1 (XILIO DEVELOPMENT, published 2023).

The chains are these.
B1: AK923 (Fc fusion)
chain 1: [human IgG1 Fc with changes left out here]GGSGGGSGKIDACKRGDVTVKPSHVILLGSTVNITCSLKPRQGCFHYSRRNKLILYKFDRRINFHHGHSLNSQVTGLPLGTTLFVCKLACINSDEIQICGAEIFVGVAPEQPQNLSCIQKGEQGTVACTWERGRDTHLYTEYTLQLSGPKNLTWQKQCKDIYCDYLDFGINLTPESPESNFTAKVTAVNSLGSSSSLPSTFTFLDIVRPLPPWDIRIKFQKASVSRSTLYWRDEGLVLLNRLRYRPSNSRLWNMVNVTKAKGRHDLLDLKPFTEYEFQISSKLHLYKGSWSDWSESLRAQTPEE
chain 2: DKTHTCPPCPAPELLGGPSVFLFPPKPKDTLMISRTPEVTCVVVDVSHEDPEVKFNWYVDGVEVHNAKTKPREEQYASTYRVVSVLTVLHQDWLNGKEYKCKVSNKALPAPIEKTISKAKGQPREPQVYTLPPCRDELTKNQVSLWCLVKGFYPSDIAVEWESNGQPENNYKTTPPVLDSDGSFFLYSKLTVDKSRWQQGNVFSCSVMHEALHNHYTQKSLSLSPGGGSGGSGGSISSGLLSGRSSGPIWELKKDVYVVELDWYPDAPGEMVVLTCDTPEEDGITWTLDQSSEVLGSGKTLTIQVKEFGDAGQYTCHKGGEVLSHSLLLLHKKEDGIWSTDILKDQKEPKNKTFLRCEAKNYSGRFTCWWLTTISTDLTFSVKSSRGSSDPQGVTCGAATLSAERVRGDNKEYEYSVECQEDSACPAAEESLPIEVMVDAVHKLKYENYTSSFFIRDIIKPDPPKNLQLKPLKNSRQVEVSWEYPDTWSTPHSYFSLTFSVQVQGKDNTEGRVFTDKTSATVICRKNASISVRAQDRYYSSSWSEWASVPCSGGGGSGGGGSGGGGSRNLPVATPDPGMFPCLHHSQNLLRAVSNMLQKARQTLEFYPCTSEEIDHEDITKDKTSTVEACLPLELTKNESCLNSRETSFITNGSCLASRKTSFMMALCLSSIYEDLKMYQVEFKTMNAKLLMDPKRQIFLDQNMLAVIDELMQALNFNSETVPQKSSLEEPDFYKTKIKLCILLHAFRIRAVTIDRVMSYLNAS
B2: AK918 (Fc fusion)
chain 1: [human IgG1 Fc with changes left out here]PGGSGPKIDACKRGDVTVKPSHVILLGSTVNITCSLKPRQGCFHYSRRNKLILYKFDRRINFHHGHSLNSQVTGLPLGTTLFVCKLACINSDEIQICGAEIFVGVAPEQPQNLSCIQKGEQGTVACTWERGRDTHLYTEYTLQLSGPKNLTWQKQCKDIYCDYLDFGINLTPESPESNFTAKVTAVNSLGSSSSLPSTFTFLDIVRPLPPWDIRIKFQKASVSRSTLYWRDEGLVLLNRLRYRPSNSRLWNMVNVTKAKGRHDLLDLKPFTEYEFQISSKLHLYKGSWSDWSESLRAQTPEE
chain 2: DKTHTCPPCPAPELLGGPSVFLFPPKPKDTLMISRTPEVTCVVVDVSHEDPEVKFNWYVDGVEVHNAKTKPREEQYASTYRVVSVLTVLHQDWLNGKEYKCKVSNKALPAPIEKTISKAKGQPREPQVYTLPPCRDELTKNQVSLWCLVKGFYPSDIAVEWESNGQPENNYKTTPPVLDSDGSFFLYSKLTVDKSRWQQGNVFSCSVMHEALHNHYTQKSLSLSPGGGSGGSDSGGFMLTSGPIWELKKDVYVVELDWYPDAPGEMVVLTCDTPEEDGITWTLDQSSEVLGSGKTLTIQVKEFGDAGQYTCHKGGEVLSHSLLLLHKKEDGIWSTDILKDQKEPKNKTFLRCEAKNYSGRFTCWWLTTISTDLTFSVKSSRGSSDPQGVTCGAATLSAERVRGDNKEYEYSVECQEDSACPAAEESLPIEVMVDAVHKLKYENYTSSFFIRDIIKPDPPKNLQLKPLKNSRQVEVSWEYPDTWSTPHSYFSLTFSVQVQGKDNTEGRVFTDKTSATVICRKNASISVRAQDRYYSSSWSEWASVPCSGGGGSGGGGSGGGGSRNLPVATPDPGMFPCLHHSQNLLRAVSNMLQKARQTLEFYPCTSEEIDHEDITKDKTSTVEACLPLELTKNESCLNSRETSFITNGSCLASRKTSFMMALCLSSIYEDLKMYQVEFKTMNAKLLMDPKRQIFLDQNMLAVIDELMQALNFNSETVPQKSSLEEPDFYKTKIKLCILLHAFRIRAVTIDRVMSYLNAS
B3: AK919 (Fc fusion)
chain 1: [human IgG1 Fc with changes left out here]GGSPGKIDACKRGDVTVKPSHVILLGSTVNITCSLKPRQGCFHYSRRNKLILYKFDRRINFHHGHSLNSQVTGLPLGTTLFVCKLACINSDEIQICGAEIFVGVAPEQPQNLSCIQKGEQGTVACTWERGRDTHLYTEYTLQLSGPKNLTWQKQCKDIYCDYLDFGINLTPESPESNFTAKVTAVNSLGSSSSLPSTFTFLDIVRPLPPWDIRIKFQKASVSRSTLYWRDEGLVLLNRLRYRPSNSRLWNMVNVTKAKGRHDLLDLKPFTEYEFQISSKLHLYKGSWSDWSESLRAQTPEE
chain 2: DKTHTCPPCPAPELLGGPSVFLFPPKPKDTLMISRTPEVTCVVVDVSHEDPEVKFNWYVDGVEVHNAKTKPREEQYASTYRVVSVLTVLHQDWLNGKEYKCKVSNKALPAPIEKTISKAKGQPREPQVYTLPPCRDELTKNQVSLWCLVKGFYPSDIAVEWESNGQPENNYKTTPPVLDSDGSFFLYSKLTVDKSRWQQGNVFSCSVMHEALHNHYTQKSLSLSPGGGSGGSGGSDSGGFMLTSGPIWELKKDVYVVELDWYPDAPGEMVVLTCDTPEEDGITWTLDQSSEVLGSGKTLTIQVKEFGDAGQYTCHKGGEVLSHSLLLLHKKEDGIWSTDILKDQKEPKNKTFLRCEAKNYSGRFTCWWLTTISTDLTFSVKSSRGSSDPQGVTCGAATLSAERVRGDNKEYEYSVECQEDSACPAAEESLPIEVMVDAVHKLKYENYTSSFFIRDIIKPDPPKNLQLKPLKNSRQVEVSWEYPDTWSTPHSYFSLTFSVQVQGKDNTEGRVFTDKTSATVICRKNASISVRAQDRYYSSSWSEWASVPCSGGGGSGGGGSGGGGSRNLPVATPDPGMFPCLHHSQNLLRAVSNMLQKARQTLEFYPCTSEEIDHEDITKDKTSTVEACLPLELTKNESCLNSRETSFITNGSCLASRKTSFMMALCLSSIYEDLKMYQVEFKTMNAKLLMDPKRQIFLDQNMLAVIDELMQALNFNSETVPQKSSLEEPDFYKTKIKLCILLHAFRIRAVTIDRVMSYLNAS

For the experiment, the target named is human IL-12 receptor (IL-12Rβ1 and IL-12Rβ2) on HEK-Blue IL-12 reporter cells (human, UniProt P42701 24-662; Q99665 24-862). The experiment can be described thus: cell-based or functional assay.
On to B1, for which the “Aklusion (Run 1)” value was found to be 63.4 fold, the “Aklusion (Run 2)” value worked out at 48.2 fold and the “Average Aklusion” value amounted to 55.8 fold.
Taken in the same sequence, the figures for B2 were 117 fold, 126 fold and 122 fold.
Take B3: the “Aklusion (Run 1)” value stood at 49.9 fold, the “Aklusion (Run 2)” value was determined as 59.8 fold and the “Average Aklusion” value amounted to 54.9 fold.
